According to paper PMC2902519:

Molecular target: FLAG-tagged wild type optineurin (FLAG-OPTNWT) (human) (UniProt Q96CV9)
Experiment: native gel or EMSA; native blue gel electrophoresis, data not shown; 420 kDa homo-hexamer

stoichiometry N: 6
Substance: FLAG-tagged wild type optineurin (FLAG-OPTNWT) (a stretch of the chain, chain not printed) (natural protein; other documents disagree on this pair)
